# Source: PubChem BioAssay AID651820 (National Center for Advancing Translational Sciences (NCATS), 2012)
# Among all 340,000 compounds or so, about 12,000 (3.5%) were called active. The shares of active, inactive and inconclusive entries below differ from those in the screen. Calls follow the shape of the dose curve; as a rule, active = well fitted inhibition curve with a large enough effect; inconclusive = small, poorly fitted or top-dose-only effect, or another doubt; inactive = no such curve, though single readings can be large or run the other way. No potency is given beside an inconclusive call; the fits are too rough.
# Assay: qHTS Assay for Inhibitors of Hepatitis C Virus (HCV)
# Settings: Huh7.5.1 HCVcc-Cre (HCVcc is cell-culture hepatitis C virus) infection, luciferase reporter, 44 h; activity change, negative = inhibition: at 41.8 µM (top of the series) unless noted
# Summary of the method: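 Whole-lifecycle infectious HCVcc-Cre system; cells 1,000/well, compound then virus (~0.5 moi) added 4 h after plating, 44 h culture. Luciferase read 15 sec following 15 min substrate incubation, room temp.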
# % is scaled to controls: 0 for no effect and ±100 for the full control effect; potency is read from the fitted curve at half-maximal effect; tags tell the direction and shape of the fitted curve.
SMILES,Potency,"activity change, negative = inhibition"
CCO[C@@H]1OC(C(=O)N2CCN(Cc3ccccc3)CC2)=C[C@H](c2coc3ccccc3c2=O)[C@H]1CCCO,"inconclusive [inhibitor, single point]",–
O=C(CSc1ccccc1F)Nc1ccc(N2CCOCC2)cc1,–,inactive: 9.47%
C=CCNc1nnc(Sc2ncccc2[N+](=O)[O-])s1,–,inactive: -17.5%
Cn1c(SCC(=O)N2CCCc3ccccc32)nnc1-c1ccco1,"inconclusive [inhibitor, single point]",–
CCOC(=O)N1CCN(C(=O)CCSc2ccccc2)CC1,–,inactive: 8.6%
CC(C)(CO)C(O)C(=O)NCCCO (configuration not stated),–,inactive: 1.82%
CCOCCCn1c(SCC(=O)Nc2cccc(OC)c2)nc2ccccc2c1=O,"inconclusive [inhibitor, single point]",–
O=C(O)c1ccc2c(=O)[nH]c(CN3CCOCC3)nc2c1,–,inactive: 12.5%
CNC(=O)c1c(NC(=O)CCS(=O)(=O)c2ccccc2)sc2c1CCN(C(=O)OC)C2,"inconclusive [inhibitor, partial curve]",–
CN(C)C/C=C(/c1ccc(Br)cc1)c1cccnc1,"inconclusive [inhibitor, full curve, poor fit]",–
CCN(CC)c1nc(N2CCN(C)CC2)nc2ccccc12,"inconclusive [inhibitor, single point]",–
O=C(Nc1ccc(N2CCN(C(=O)c3ccccc3)CC2)cc1)c1ccc2c(c1)OCCO2,"inconclusive [inhibitor, partial curve]",–
O=C(Nc1cccc(S(=O)(=O)Nc2ccccc2Cl)c1)c1ccc(N2CCCC2)c([N+](=O)[O-])c1,"inconclusive [inhibitor, full curve]",–
CN(C)Cc1c(O)ccc2[nH]cnc12,"inconclusive [inhibitor, full curve, poor fit]",–
COc1cccc(N(C(=O)c2ccco2)c2nc(-c3sc(NC(=O)c4ccco4)nc3C)cs2)c1,active: 3.98 µM,–
CCOc1ccc(CCNC(=O)c2ccc3nc(N4CCOCC4)sc3c2)cc1OCC,"inconclusive [inhibitor, full curve, poor fit]",–
COc1ccc(C(=O)Nc2ccc(N3CCCC3)cc2)cc1Br,"inconclusive [inhibitor, full curve, poor fit]",–
CC1(c2ccc([N+](=O)[O-])cc2)Nc2ccccc2S1 (configuration not stated),–,inactive: -5.7%
CCCCC[C@H](O)/C=C/C1C(=O)C=C[C@H]1C/C=C\CCCC(=O)OC (some centres not stated),"inconclusive [inhibitor, single point]",–
N=c1c(C(=O)NCc2ccc(F)cc2)cc2c(=O)n3ccccc3nc2n1Cc1cccnc1,"inconclusive [inhibitor, partial curve]",–
COc1cccc(OC)c1C(=O)NC(=O)Nc1c(F)c(F)c(F)c(F)c1F,–,inactive: -9.35%
COc1ccccc1CN1CC(C(=O)N2CCCCCCC2)CCC1=O (configuration not stated),–,inactive: 14.4%
O=C(NCc1ccccc1)c1ccc2nc(-c3ccco3)c(-c3ccco3)nc2c1,–,inactive: -7.76%
CCOc1ccc(S(=O)(=O)N2CCN(C(=O)c3oc4ccccc4c3C)CC2)cc1,–,inactive: -5.95%

SMILES,Potency,"activity change, negative = inhibition"
Cc1ccc(-c2nc(CS(=O)(=O)CC(=O)N3CC(C)CC(C)C3)c(C)o2)cc1 (configuration not stated),"inconclusive [inhibitor, single point]",–
CCOc1cccc(=NC2CCCCC2)c2c(C)[nH]c(C)c12,–,inconclusive: -81.5% [inhibitor]
CC(C)CCN1CC(C(=O)NCc2ccccc2)CC1=O (configuration not stated),"inconclusive [inhibitor, full curve, poor fit]",–
NC(=S)n1[nH]c(-c2ccc([N+](=O)[O-])cc2)c(N=Nc2ccc(Cl)cc2)c1=O,active: 6.31 µM,–
COCCNC(=O)c1cccc(OC2CCN(Cc3ccc(Cl)c(F)c3)CC2)c1,"inconclusive [inhibitor, single point]",–
Cn1c(=O)c(C(=O)NC2CCCCCCC2)c(O)c2ccccc21,"inconclusive [inhibitor, full curve]",–
CC(=O)c1c(C)nc2ccccn12,–,inactive: 18.3%
CN(CC(=O)Nc1ccc(Cl)c(C(F)(F)F)c1)C(=O)CCC(=O)c1ccccc1,active: 11.2 µM,–
O=S(=O)(Nc1ccc(F)cc1)c1ccc(NC(=S)Nc2ccccc2)cc1,"inconclusive [inhibitor, partial curve, poor fit]",–
CCOC(=O)C1CCCN(C(=O)c2sc3nc(C)nc(N(CC)CC)c3c2C)C1 (configuration not stated),–,inactive: -27.9%
O=C(NC1CCCCC1)c1cnn2c(C(F)(F)F)cc(-c3ccco3)nc12,"inconclusive [inhibitor, full curve]",–
O=C1OC(Sc2ccccc2)(c2ccccc2)c2ccccc21 (configuration not stated),"inconclusive [inhibitor, partial curve]",–
CC(CNC(=O)CN1C(=O)CCSc2ccccc21)c1ccccc1 (configuration not stated),–,inactive: 3.01%
COc1ccc(CCNC(=O)COc2ccc(-c3ccccc3)cc2)cc1OC,"inconclusive [inhibitor, partial curve]",–
Cc1ccc(S(=O)(=O)N2CCOCC2)cc1NC(=O)CNCc1ccc(Cl)cc1Cl,"inconclusive [inhibitor, full curve]",–
CC(C)Cc1cc(C(=O)Nc2ccc(Br)cc2)no1,–,inactive: -22.3%
O=C(c1ccc([N+](=O)[O-])cc1)N1CCSC1c1ccc(Br)cc1 (configuration not stated),"inconclusive [inhibitor, full curve, poor fit]",–
CC(C)C[C@H](NC(=O)OC(C)(C)C)c1nnc(SCc2ccccc2)o1,–,inactive: -20%
CCCCC(=O)N/N=C/c1c(O)n(CC)c(=S)n(CC)c1=O,"inconclusive [inhibitor, partial curve]",–
COc1ccc(/C=N/NC(=O)CCCCCNC(=O)c2ccccc2)cc1,–,inactive: 9.53%
CCOC(=O)N(O)c1ccc(C=Cc2ccccc2)cc1,active: 3.98 µM,–
CCCCN=C(NNc1ccc(Br)cc1)C(=O)OCC,"inconclusive [inhibitor, full curve, poor fit]",–
Cc1cccc(C(=O)NC(=S)Nc2ccc(S(=O)(=O)N3CCCCC3)cc2)c1,"inconclusive [inhibitor, single point]",–
